In all, about 310,000 compounds went through this assay and about 2,200 (0.71%) showed an effect of 50% or more. Effects have a minus sign here. The list shows a part of the results.
Target: human ether-à-go-go-related gene (hERG) potassium channel (human, UniProt Q12809)
Assay: primary screen, population patch clamp on CHO cells stably expressing hERG

human ether-à-go-go-related gene (hERG) potassium channel, sequence (Q12809 whole entry, looked up): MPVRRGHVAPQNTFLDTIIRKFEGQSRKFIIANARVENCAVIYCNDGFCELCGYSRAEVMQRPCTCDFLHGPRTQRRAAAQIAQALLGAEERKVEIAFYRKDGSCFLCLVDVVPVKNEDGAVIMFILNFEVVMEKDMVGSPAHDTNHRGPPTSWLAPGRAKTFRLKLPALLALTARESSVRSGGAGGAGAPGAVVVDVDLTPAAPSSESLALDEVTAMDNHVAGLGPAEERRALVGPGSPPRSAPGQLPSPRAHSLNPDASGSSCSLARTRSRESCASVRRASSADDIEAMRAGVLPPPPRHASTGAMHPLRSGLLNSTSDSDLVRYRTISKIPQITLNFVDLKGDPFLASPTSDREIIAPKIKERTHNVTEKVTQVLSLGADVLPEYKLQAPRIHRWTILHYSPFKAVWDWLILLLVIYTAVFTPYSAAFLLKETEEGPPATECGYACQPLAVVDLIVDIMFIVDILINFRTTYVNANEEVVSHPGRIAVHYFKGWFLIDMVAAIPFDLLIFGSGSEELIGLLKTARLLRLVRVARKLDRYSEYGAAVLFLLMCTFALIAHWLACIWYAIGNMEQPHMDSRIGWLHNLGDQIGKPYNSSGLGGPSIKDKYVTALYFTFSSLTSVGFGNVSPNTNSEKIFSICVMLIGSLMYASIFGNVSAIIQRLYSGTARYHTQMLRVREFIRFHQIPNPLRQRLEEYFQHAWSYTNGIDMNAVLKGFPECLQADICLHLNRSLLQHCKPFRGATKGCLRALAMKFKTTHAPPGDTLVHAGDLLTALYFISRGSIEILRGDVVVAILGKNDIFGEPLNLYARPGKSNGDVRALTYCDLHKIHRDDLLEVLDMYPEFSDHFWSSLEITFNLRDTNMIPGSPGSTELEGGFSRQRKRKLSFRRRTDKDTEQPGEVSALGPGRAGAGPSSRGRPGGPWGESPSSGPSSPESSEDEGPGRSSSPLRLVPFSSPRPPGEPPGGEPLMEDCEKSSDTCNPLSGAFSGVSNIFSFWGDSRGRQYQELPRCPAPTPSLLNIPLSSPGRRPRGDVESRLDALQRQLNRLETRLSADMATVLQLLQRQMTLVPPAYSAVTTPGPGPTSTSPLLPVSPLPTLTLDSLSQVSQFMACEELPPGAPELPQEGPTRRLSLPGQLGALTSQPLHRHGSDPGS

SMILES | hERG current change (%, negative = inhibition) at 1uM [%]
COc1ccc(-c2nnc(SCC(=O)N3CCOCC3)o2)cc1OC | 1.41
CCC(C)NC(=O)C1CCN(S(=O)(=O)c2ccc3[nH]c(=O)ccc3c2)CC1 (centres unmarked) | 7.77
Cc1ccc(S(=O)(=O)Nc2c(C)n(C)n(-c3ccccc3)c2=O)cc1C(=O)NCc1ccccn1 | 16.7
CC(C)=CC[N+]1(C)CCCCC1.[Br-] | 18.7
CCC(C)OC(=O)c1[nH]c2c(c1C)C(=O)CC(c1ccc(N(C)C)cc1)C2 (centres unmarked) | 5.6
CN(c1ccccc1)c1nc(N)c([N+](=O)[O-])c(N2CCCCC2)n1 | 7.57
Cc1n[nH]c(C)c1Sc1ccccc1[N+](=O)[O-] | 2.44
O=C(NCc1ccc(F)cc1)C1CCCN(S(=O)(=O)c2ccc(-n3cnnn3)cc2)C1 (centres unmarked) | 9.68
COc1ccc(/C=C/C(=O)NC2CCS(=O)(=O)C2)cc1 (centres unmarked) | 10.3
COCCNC(=O)C(OC(=O)CC1Sc2ccccc2NC1=O)c1ccccc1 (centres unmarked) | 6.18
CCCNC(=O)Nc1cccc(C(=O)OC)c1 | 0.0389
O=C(CN1C(=O)CCC1=O)Nc1ccc(Cc2ccc(NC(=O)CN3C(=O)CCC3=O)cc2)cc1 | 18.4
CCN(CC)CCCNC(=O)CSc1nc2c(c(C(F)(F)F)n1)CCc1ccccc1-2 | -23.1
COCCn1c(SCC(=O)Nc2ccccc2F)nc2c(c1=O)SCC2 | 12.3
COc1ccc(C(=O)Nc2sc3c(c2C#N)CCN(C(C)=O)C3)cc1 | 17.6
O=C(CCS(=O)(=O)c1ccc(Br)cc1)NCCC1=CCCCC1 | 7.69
Cc1ccc(Cl)cc1N1CCN(CC(=O)NC2CCCc3ccccc32)CC1 (centres unmarked) | 11.9
CCOC(=O)C1C(=O)CC(C)(O)C(C(=O)OCC)C1c1ccccc1 (centres unmarked) | 3.77
O=c1cc(-c2ccccc2)nc(Sc2ccc([N+](=O)[O-])cc2[N+](=O)[O-])[nH]1 | 18.1
O=C(NCc1cccc(Cl)c1)c1ccc2c(c1)OCO2 | 6.15
Cc1ccc(NC(=O)CN(C)S(=O)(=O)c2cccs2)cc1F | 12
CN(Cc1nc2ccccc2c(=O)[nH]1)C(=O)c1cccc(S(=O)(=O)N2CCCCCC2)c1 | 4.23

SMILES | hERG current change (%, negative = inhibition) at 1uM [%]
CC1=C(C(=O)NCc2ccc3c(c2)OCO3)C2(CCC(C)CC2)OC1=O (centres unmarked) | -3.63
CCOC(=O)N(CC)OC(=O)Nc1ccc(Cl)cc1 | -1.05
COc1ccc(N2CCN(C(=O)c3ccc(Cl)c(S(=O)(=O)N4CCCC4)c3)CC2)cc1 | 6.82
COc1ccc(C2SCC(=O)N2c2ccc(F)cc2)cc1 (centres unmarked) | 14
COCCCNC(=O)c1ccc2c(c1)ncn2-c1ccccc1OC | 5.26
CCOC(=O)C1=C(C)N(CCCCCC(=O)O)C(=O)NC1c1ccccc1Cl (centres unmarked) | 7.73
COc1ccc(CN2C(=O)N(c3ccc(OC)cc3)C(=O)C2CC(=O)Nc2ccccc2)cc1 (centres unmarked) | 12.2
N#C/C(=C(/O)COC(=O)c1ccc(C#N)cc1)c1nc2ccccc2s1 | 9.64
CC(C)CC(=O)NC(NC(=S)Nc1sc2c(c1C#N)CCCC2)C(Cl)(Cl)Cl (centres unmarked) | 12.7
CCCCCC1CC(CC(=O)Nc2nncs2)C(=O)O1 (centres unmarked) | 8.87
CCCCC(C(=O)O)C(C)CC(=O)Nc1cccc(C(=O)O)c1 (centres unmarked) | 3.02
COc1ccccc1CNC(=O)C1CCCN(S(=O)(=O)c2cccc3nonc23)C1 (centres unmarked) | 6.1
CCCCOC(=O)c1ccc(NC(=O)c2cc(Cl)c(Cl)cc2C(=O)O)cc1 | 2.68
CCOc1ccc(S(=O)(=O)N2CCN(Cc3ccc4c(c3)OCO4)CC2)cc1C | 6.2
COc1ccccc1CNC(=O)c1c(-c2ccccc2Cl)noc1C | 5.85
O=C(CN1CCN(c2ccccc2O)CC1)NCCCc1ccccc1 | 6.98
Cn1nc(C(F)(F)F)c2cc(C(=O)NC3CC3)sc21 | 5.65
CC(/C=N\NC(=O)c1cc(C)oc1C)=C\c1ccccc1 | 16.5
COc1ccc(OCc2cc(C(=O)N(Cc3nccn3C)C(C)C)no2)c2ccccc12 | 9.57
COC(=O)c1ccc(NC(=O)CCc2nnc3ccc(NCc4ccco4)nn23)cc1 | 18.3
COc1ccc(/C=C2/Sc3ccc(C(=O)NCCN4CCCCCC4)cc3NC2=O)cc1 | 11.4
NS(=O)(=O)c1ccc(CCNC(=O)/C=C/c2cccc([N+](=O)[O-])c2)cc1 | -1.11

SMILES | hERG current change (%, negative = inhibition) at 1uM [%]
CCOC(=O)C1=C(C)NC(=O)NC1c1ccc(OCC(N)=O)cc1 (centres unmarked) | 6.27
O=C1c2ccccc2NC(c2ccc(O)cc2)N1Cc1ccco1 (centres unmarked) | -6.07
COCCN(Cc1cc2ccc(C)c(C)c2nc1Cl)C(=O)N1CCOCC1 | 3.39
CN(Cc1ccccc1)C(=O)CNC(=O)C12CC3CC(CC(C3)C1)C2 | -0.479
CC(C)(C)c1ccc(O)c(CN2CCN(c3ccccc3)CC2)c1 | 17.8
CCOc1ccc(C2C(C(=O)Nc3ccccc3)=C(C)N=c3s/c(=C/c4cccc(OCC(=O)O)c4)c(=O)n32)cc1 (centres unmarked) | 6.93
COc1ccc(C2=NN(C(=O)CSc3nc(=O)n4cccc(C)c4n3)C(c3ccc(C)cc3)C2)cc1 (centres unmarked) | 9.55
COC(=O)Cc1ccc(OCC(=O)Nc2ccc(OC(F)(F)F)cc2)cc1 | 9.64
Cc1ccc2cccc(N=Cc3c(C)[nH]n(-c4ccccc4)c3=O)c2n1 | 11.4
O=C1C[C@@H](c2ccc(O)cc2)Oc2cc(O)cc(O)c21 | 8.66
CCn1cc(C(=O)NCCO)c(=O)c2cc(F)c(N3CCN(C)CC3)cc21.Cl | -2.33
CS(=O)(=O)c1ccc(Cl)c(NC(=O)COC(=O)c2ncc(Cl)c(Cl)c2Cl)c1 | 8.1
CN(Cc1ccnc2ccccc12)C(=O)C1CCC(=O)N(Cc2ccccc2F)C1 (centres unmarked) | 5.4
CC1(CCc2ccccc2)NC(=O)N(CC(=O)N2CCCCCC2)C1=O (centres unmarked) | 6.78
COc1cc(Cl)c(C)cc1NC(=O)CNC(=O)Cn1cnc2ccccc2c1=O | 8.76
O=C(Nc1ccccc1)C1CC(=O)n2c(nc3ccccc32)N1 (centres unmarked) | 10.7
COc1ccc(/C=N/NC(=S)Nc2ccccc2)cc1COc1ccccc1F | 4.31
O=C(O)c1cc2cc(Cl)ccc2oc1=O | 10.3
COC(=O)Nc1ncc(CN2CCc3ccccc3C2)s1 | -14.7
Cc1c(Cl)c([N+](=O)[O-])nn1CC(=O)NC(C)C1CC2CCC1C2 (centres unmarked) | -1.62
Cc1ccc(N2C(=O)[C@@H]3[C@H](C2=O)[C@H]2C=C(C(=O)c4ccccc4)C=CN2[C@@H]3C(=O)c2ccc(Cl)cc2)cc1 | 10.2
O=C(Nc1ccccc1)c1ccccc1NC(=O)C1CCCCC1 | 13.3

SMILES | hERG current change (%, negative = inhibition) at 1uM [%]
COc1ccccc1NC(=O)c1ccc(NC(=O)c2nc3nccc(C)n3n2)cc1 | 13.1
Nn1cnnc1SCC(=O)Nc1ccc2c(c1)OCO2 | 6.71
CC(C)(C)NC(=S)NC(=O)C12CC3CCC(CC(C3)C1)C2 | 10.6
CCOc1ccc(N(C(=O)c2cnsn2)C(C(=O)NC2CCCCC2)c2ccncc2)cc1 (centres unmarked) | -52.1
CC(=O)C1C(c2ccc(Cl)cc2)NC(=O)NC1(O)C(F)(F)F (centres unmarked) | 15.4
CCOC(=O)c1cnc2c(-c3ccccc3)cnn2c1N | 16.6
CCC(ONc1ccccc1C(F)(F)F)(C(=O)NN(C)C)c1ccccc1 (centres unmarked) | 12.2
O=C(CSc1nnc(-c2ccccc2)o1)Nn1cnnc1 | -4.31
CCOc1ccc(C(C)=O)cc1CN1c2ccc(S(N)(=O)=O)cc2CC1C (centres unmarked) | 12.6
CCCC(=O)Nc1ccc(-c2cnc(-c3ccc(NC(=O)CCC)cc3)nc2)cc1 | 12.9
Cc1cc(C)n(CC(=O)Nc2ccc([N+](=O)[O-])cc2)n1 | 2.85
COc1ccc(OC)c(C2C(C(N)=O)=C(C)Nc3nc(CCCO)nn32)c1 (centres unmarked) | 15.5
O=C(OCc1cc(-c2ccccc2)no1)c1ccc2ccccc2n1 | 14.7
CC(=O)NCCc1cc2cc(C)c(C)cc2[nH]c1=O | 9.46
Cc1cc(=O)oc(C)c1C(=O)NCC(C)NC(=O)c1c(C)cc(=O)oc1C (centres unmarked) | 2.37
C=CCOC(=O)C1=C(C)Nc2nnnn2C1c1cccs1 (centres unmarked) | -5.38
CC(=O)c1cccc(NC(=O)C2=CC(c3ccco3)=NS(=O)(=O)N2C)c1 | 15.9
O=[N+]([O-])/C=C/c1c(OCc2ccccc2)ccc2ccccc12 | -3.83
CCCCS(=O)(=O)C1CCS(=O)(=O)C1 (centres unmarked) | 10.1
N/C(=N\OC(=O)c1ccc(Cl)cc1)c1cccnc1 | -0.596
